Experimental data published in patent US12325690B2, “Compounds for the reducing lipotoxic damage” (Mayo Foundation for Medical Education and Research, priority 2017, dated 2025).

Legend:
pancreatic lysate lipase = molecular target: T1, pancreatic lysate lipase (Mus musculus, UniProt Q6P8U6); assay: Lipase activity assay with pancreatic lysate (commercial Pointe scientific lipase assay); format: biochemical; conditions: solution stored overnight at room temperature
T1 construct: efficacy against mouse pancreatic lysates; other: summary of strengths of 767; efficacy as a solution when left overnight; other: solution left overnight; efficacy in the lipase activity assay compared with orlistat when fresh; other: fresh solution; IC50 of orlistat after overnight incubation (nearest tested concentration); other: after overnight incubation; improvement in stability and e
T1 sequence (Q6P8U6 17-465): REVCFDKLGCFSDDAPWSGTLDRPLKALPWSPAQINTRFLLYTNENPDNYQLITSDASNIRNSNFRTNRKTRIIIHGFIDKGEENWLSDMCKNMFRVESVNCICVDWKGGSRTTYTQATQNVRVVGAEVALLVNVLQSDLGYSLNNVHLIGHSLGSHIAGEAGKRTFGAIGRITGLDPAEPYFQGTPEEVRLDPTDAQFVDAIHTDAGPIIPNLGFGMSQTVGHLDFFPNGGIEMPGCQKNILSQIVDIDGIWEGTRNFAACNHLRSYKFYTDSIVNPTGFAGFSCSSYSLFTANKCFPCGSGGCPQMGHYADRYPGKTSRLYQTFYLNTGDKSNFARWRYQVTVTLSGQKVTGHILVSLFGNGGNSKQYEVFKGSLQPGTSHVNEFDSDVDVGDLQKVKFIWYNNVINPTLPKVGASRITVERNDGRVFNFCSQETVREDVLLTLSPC
Protocol: To test the efficacy of these compounds, the agents were dissolved as a 20 mM stock in ethanol, and further diluted to in PBS as a 600 micromolar working stock (3.3% ethanol). This was either used immediately or left at room temperature for 16-20 hours overnight before retesting efficacy. The agents were incubated with a pancreatic lysate in serial ⅓ dilutions spanning a range of 200 to 0.3 micromolars for 30 minutes. 5 microliters of these mixtures were then used to measure lipase activity using a commercial lipase assay (Pointe scientific) containing a monoacyl glycerol lipase in the reagent. The lipase assay was done using reagents in proportion to the recommended protocol. Values were depicted as % maximal lipase activity of the well without any inhibitor.

[1] = test system: acinar cells in acinar-adipocyte co-culture; conditions: 66 micromolars

improvement in stability and efficacy over orlistat after overnight storage (pancreatic lysate lipase)	SMILES	toxicity to acinar cells [1]	efficacy in reducing lipotoxic damage to acinar cells ([1]; acinar-adipocyte co-culture)
approximately 10 fold	CCCCCCCCCCC[C@@H](C[C@@H]1OC(=O)[C@H]1CCCCCC)OC(=O)[C@H](C)NC=O [Compound 741]	least toxic	retaining its efficacy
approximately 10 fold	CCCCCCCCCCC[C@@H](C[C@@H]1OC(=O)[C@H]1CCCCCC)OC(=O)[C@H](COC=O)NC=O [Compound 736]		
